# This is one part of the list.
# System: PfHDP1 homeodomain (GST-tagged)
# Experiment: gcPBM binding intensity (ln(normalized median fluorescence intensity)); higher = stronger DNA binding
# How it was run: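 GST-fused DNA-binding domains of P. falciparum, expressed in E. coli, were applied at about 25 μg on average for 1 h to an Agilent 4 × 180k array of primer-extended double-stranded 36-bp intergenic genomic probes and negative controls. Binding intensity is the highest Masliner-normalised natural-log median intensity across replicate spots of either probe orientation, measured with Alexa488 anti-GST antibody and a 488 nm scan.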
row,Sequence,gcPBM binding intensity (ln)
1,TTAATAACGTAATGTAAATGTTTCATACCCTTTTTT [CACACA_negctrl_site988],6.36
2,ATATATATGTATGTATATATATATATATATGTTTGA [CACACA_negctrl_site107],6.67
3,ATAAAATAAAAACATGCACACTTTATTTTTTTTAAG [CACACA_site5545],8.84
4,AAAGAAGGGGGGGGAAAAAAAAATAAAAGAGGAAAA [XGTACX_negctrl_site92],7.61
5,ATATATAATAATTGTAGTACAATTAATAAATAAAAT [XGTACX_site3840],6.54
6,TATATATATATAATTTGTACACACAAATATGCATAT [XGTACX_site7297],9.02
7,TCCTCATTTTATCATACACACTTGTTTATATGTGTG [CACACA_site6548],6.72
8,ATACGATTGCAGTCAAAAAGGAAAATATAAAAAAAG [XGTACX_negctrl_site124],6.74
9,TTATCATTTTAAATCACACACATATATAAATATGTA [CACACA_site7359],6.45
10,AATATTTATAAATTTACACACACACCCGTGAACATA [CACACA_site1910],6.88
11,TTATTAAATATAAATATGTATCTTTTATGTTATATT [CACACA_negctrl_site306],6.13
12,AGACCTATGATATATACACACATATAAATAAATATA [CACACA_site6725],6.6
13,AATGTTAAACTATGATGTACGGTTAAAAATATAATT [XGTACX_site893],6.43
14,AAAAAAAAAAGACACACACACATAGACCTCCAATAG [CACACA_site7646],6.57
15,TATTTTACGACATACCAAAAAAAAAAAAAAAAAATA [CACACA_negctrl_site1254],5.85
16,TAAATCCGCAGGCACACACACATATTAATAAAAAAA [CACACA_site3991],6.4
17,AATGATTTTGATTAACGTACGTACAAATATATATAT [XGTACX_site6604],7.82
18,TATATATTATATAAATAAATAAATATATATATTTAT [TGCATGCA_negctrl_site270],6.27
19,AAATTTAGTAAAAAATGTACGTAAAATGTAAAATAT [XGTACX_site1314],6.84
20,AAGGTAAACGGACACACACACATACAAAAAAAAAAA [CACACA_site5961],6.48
21,ATACTAACATTTTTTTGTACATATAACTATAAAATA [XGTACX_site1033],6.7
22,TGATATTATAGATATACACACATGTATGTATTTATA [CACACA_site6758],6.44

row,Sequence,gcPBM binding intensity (ln)
1,ATCGGTAATATTAACACACACATTTATTTATATTTA [CACACA_site6638],6.8
2,TTTTATTATATGGAGGTGCATATATAATAATATAAT [GTGCAC_site9477],9.07
3,ATGTATGTAATAAAAAGTACATATGTTCATAATAAA [XGTACX_site842],6.53
4,TTCTTTTTAAATATACTAATTATGTATAAAACAGAA [GTGCAC_negctrl_site131],6.24
5,TTTTATAAATATTTTTGTACACATTTAAATATTATT [XGTACX_site4973],6.78
6,TTTTCATATATTTATTGTACATATTACATATATAAT [XGTACX_site2425],6.84
7,AGAGAGAACGGTATAACATGCAATAAATTTCAGAAG [TGCATGCA_site423],6.56
8,TTTTTTTAATAAAAGTGTACCAAATTATATACACAT [XGTACX_site6811],6.48
9,ATTTATAAATCAAAGTGTACATATGTTTTATTTTTT [XGTACX_site804],6.78
10,AAATGGAGTTAATATTGTACATATATATATATATAT [XGTACX_site5452],9.44
11,TTTTTCTATTCCATTCAACACACAAAAATGTATGCT [CACACA_site8268],6.5
12,AAAGTTTTAAGAAAATGTACATAAGTATACATATAT [XGTACX_site1293],6.54
13,TTTGGGATAAAACAAAGTACTAACAAAATATATAAT [XGTACX_site8240],6.85
14,ATTCTTGTTATATAAGGTACAGAACAAAATATAAAA [XGTACX_site5510],6.59
15,TGCATTTTACTTGTTACACACATATAAAATTAACCA [CACACA_site7387],6.57
16,TTTTTTTTTTTTTTAACACACATATAAATATTTTTC [CACACA_site6985],6.52
17,TACAAGTATAAATAAGCACACATGTGTATATGTACA [CACACA_site7911],7.13
18,TTAGAAGGGATTAAAGTGCAAAATAGGATTAGAGTA,9.49
19,TCTTATTTAATTAAACAAAAGAAAAAGAAAGAAAAG [CACACA_negctrl_site1569],6.44
20,GACAAATTAATCGATTGTACACAATTTGTTTCGTTG [XGTACX_site35],6.7
21,TTTTTTTTTTTTTGTACATGCAAATATTATGAACAC [TGCATGCA_site571],6.67
22,AACACATACATATATGCACACATTTTATTCCATTAT [CACACA_site2834],10.1
